According to PubChem BioAssay AID588342 (National Center for Advancing Translational Sciences (NCATS), 2011):
About 25,000 (6.9%) of roughly 360,000 compounds were called active. The inconclusive results got no clear call from the source; some entries with a clear call stand among them for comparison. Calls follow the shape of the dose curve; as a rule, active = well fitted inhibition curve with a large enough effect; inconclusive = small, poorly fitted or top-dose-only effect; inactive = flat fitted curve, though single readings scatter. A potency beside an inconclusive call is a rough fit, not a confirmed value.

Target: Luciferin 4-monooxygenase (Photinus pyralis) (UniProt P08659)
Assay: qHTS profiling assay for firefly luciferase inhibitor/activator using purifed enzyme and Km concentrations of substrates (counterscreen for miR-21 project); also: nearly all actives have a fitted effect of over 55% in size
Conditions: purified FLuc, luminescence inhibition; series mostly up to 57.5 µM
How it was run: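 Biochemical qHTS of compounds, final roughly 60 µM downward over six points, against 10 nM purified firefly luciferase using Km concentrations of substrates (10 uM D-luciferin, 10 uM ATP) in Tris acetate pH 7.5 buffer; luminescence output.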
Potency is read from the fitted curve at half-maximal effect; tags tell the direction and shape of the fitted curve.

UniProt P08659, sequence (P08659 whole entry, looked up): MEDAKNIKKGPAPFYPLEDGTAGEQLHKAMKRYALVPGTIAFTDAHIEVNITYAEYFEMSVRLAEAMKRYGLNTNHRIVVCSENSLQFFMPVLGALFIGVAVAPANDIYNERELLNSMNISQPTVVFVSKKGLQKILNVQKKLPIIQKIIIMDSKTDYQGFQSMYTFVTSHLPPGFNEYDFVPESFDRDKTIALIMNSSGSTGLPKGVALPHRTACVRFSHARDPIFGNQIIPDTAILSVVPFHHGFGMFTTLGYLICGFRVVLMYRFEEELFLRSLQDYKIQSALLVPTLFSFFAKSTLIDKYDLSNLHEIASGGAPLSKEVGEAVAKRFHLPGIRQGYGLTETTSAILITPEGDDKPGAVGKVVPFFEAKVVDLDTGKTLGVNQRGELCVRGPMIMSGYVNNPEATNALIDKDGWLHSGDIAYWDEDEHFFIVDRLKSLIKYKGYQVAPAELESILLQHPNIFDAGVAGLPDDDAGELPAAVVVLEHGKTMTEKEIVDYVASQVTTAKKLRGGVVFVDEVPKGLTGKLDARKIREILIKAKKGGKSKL

**Q.** For `O=C(NCc1ccc2c(c1)OCO2)Nc1ccc([N+](=O)[O-])cc1`, which Potency is on record?
**A.** The Potency was “inactive”.

**Q.** `CC(C)(C)c1csc(NNC(=O)c2ccc(Br)cc2)n1` was tested. Which Potency did it give?
**A.** Its Potency is inconclusive: 37.9 µM [inhibitor, partial curve, poor fit].

**Q.** `CC(C)CCn1c(=O)c2sccc2n2c(CCCC(=O)N3CCN(c4ccccn4)CC3)nnc12` was tested. Which Potency did it give?
**A.** Its Potency is “inactive”.

**Q.** With `Cc1nn(CCOc2ccccc2)c(=O)n1-c1ccccc1` as the compound, how does the Potency read?
**A.** The Potency was inconclusive: 21.3 µM [inhibitor, partial curve, poor fit].

**Q.** `O=C1CCc2cc(NS(=O)(=O)c3cc(F)ccc3F)cc3c2N1CC3` was tested. Which Potency did it give?
**A.** The Potency was “inactive”.

**Q.** `COc1ccc(S(=O)(=O)N2CCN(c3ccc(F)cc3)CC2)cc1C(=O)N1CCOCC1` was tested. Which Potency did it give?
**A.** The Potency was “inactive”.

**Q.** `O=C(c1ccc(Br)cc1)N(Cc1cccs1)c1ccc(F)cc1` was tested. Which Potency did it give?
**A.** The Potency was inconclusive: 37.9 µM [inhibitor, partial curve, poor fit].

**Q.** Which Potency does the source give for `COc1ccc2nc(NC(=O)CN3CCN(C)CC3)sc2c1` here?
**A.** Its Potency is inconclusive: 23.9 µM [inhibitor, partial curve, poor fit].

**Q.** `CCN(CC)C(=O)c1sc(NC(=O)c2cccc([N+](=O)[O-])c2)c(C#N)c1C` was tested. Which Potency did it give?
**A.** The Potency was active: 23.9 µM.

**Q.** With `CC(C)c1ccc(C(O)c2nc3ccccc3n2C)cc1` (configuration not stated) as the compound, how does the Potency read?
**A.** The Potency was “inactive”.

**Q.** For `O=c1cc(CSc2ccc(Cl)cc2)[nH]c2[nH]n(-c3ccccc3)c(=O)c12`, which Potency is on record?
**A.** Its Potency is inconclusive: 26.9 µM [inhibitor, single point].

**Q.** How did the Potency turn out when `CC(C)(C)NC(=O)c1ccc(C(=O)NC(C)(C)C)cc1` was run?
**A.** The Potency was “inactive”.

**Q.** `Cn1cc(C=C2C(=O)CC(C)(C)CC2=O)c2ccccc21` was tested. Which Potency did it give?
**A.** The Potency was inconclusive: 23.9 µM [inhibitor, single point].

**Q.** How did the Potency turn out when `O=C(N/N=C/c1cccs1)c1ccc2ccccc2c1` was run?
**A.** Its Potency is active: 10.7 µM.

**Q.** Which Potency does the source give for `COc1ccc(/C=N/NC(=O)CSc2n[nH]c(=O)[nH]c2=O)cc1` here?
**A.** The Potency was inconclusive: 30.1 µM [inhibitor, single point].

**Q.** `Cc1ccc(OCCOCCn2c(-c3ccc(Cl)cc3)nc3ccccc3c2=O)cc1` was tested. Which Potency did it give?
**A.** Its Potency is “inactive”.

**Q.** For `Cc1ccc(Nc2nc(N)nc(CSC(=S)N3CCOCC3)n2)c(C)c1`, which Potency is on record?
**A.** The Potency was inconclusive: 21.3 µM [inhibitor, partial curve].

**Q.** For `CCCCOc1ccc(-c2nnn(CC(=O)Nc3ncc(CC(=O)OCC)s3)n2)cc1`, which Potency is on record?
**A.** Its Potency is inconclusive: 23.9 µM [inhibitor, single point].

**Q.** How did the Potency turn out when `Cc1ccccc1Cn1nnc(-c2cccc(C(=O)O)c2)n1` was run?
**A.** Its Potency is active: 4.26 µM.

**Q.** Which Potency does the source give for `O=C(Cc1ccccc1F)c1ccc(O)cc1O` here?
**A.** Its Potency is inconclusive: 37.9 µM [inhibitor, single point].

**Q.** Which Potency does the source give for `Cc1ccnc(NC(=O)c2ccc(NC(=O)c3ccco3)cc2)c1` here?
**A.** The Potency was active: 10.7 µM.

**Q.** For `O=C(CCOc1ccccc1)Nc1ccc(Br)cc1`, which Potency is on record?
**A.** The Potency was inconclusive: 23.9 µM [inhibitor, single point].

**Q.** How did the Potency turn out when `O=C(O)c1nn2cc(CCO)cnc2c1Cl` was run?
**A.** Its Potency is inconclusive: 23.9 µM [inhibitor, single point].

**Q.** `Cc1cc(C)n(CC(=O)NC2CCCc3c2cnn3-c2ccc(C)c(C)c2)n1` (configuration not stated) was tested. Which Potency did it give?
**A.** The Potency was inconclusive: 26.9 µM [inhibitor, single point].

**Q.** For `O=C(NCC1CCCO1)c1cc(-c2ccccc2)nc2ccccc12` (configuration not stated), which Potency is on record?
**A.** Its Potency is inconclusive: 23.9 µM [inhibitor, single point].

**Q.** Which Potency does the source give for `CN(C)/N=C/c1c(O)ccc2ccccc12` here?
**A.** Its Potency is inconclusive: 37.9 µM [inhibitor, single point].

**Q.** For `O=C(COC(=O)c1n[nH]c(=O)c2ccccc12)c1ccc(Br)cc1`, which Potency is on record?
**A.** Its Potency is inconclusive: 2.69 µM [inhibitor, full curve].

**Q.** For `CN(C)c1cccc(/C=C(\C#N)c2ccccc2)c1`, which Potency is on record?
**A.** The Potency was active: 1.2 µM.

**Q.** For `O=C(CC(Nc1ccc(F)cc1)c1ccccc1)c1ccccc1` (configuration not stated), which Potency is on record?
**A.** Its Potency is inconclusive: 23.9 µM [inhibitor, partial curve].

**Q.** For `S=C(NCCc1ccccc1)NCC1CCCO1` (configuration not stated), which Potency is on record?
**A.** Its Potency is inconclusive: 26.9 µM [inhibitor, partial curve, poor fit].

**Q.** `CCCc1cc(C(=O)Nc2ccc(C(C)=O)cc2)no1` was tested. Which Potency did it give?
**A.** The Potency was inconclusive: 12 µM [inhibitor, partial curve].

**Q.** How did the Potency turn out when `N#CC1=C(N)N2C(=C(C#N)C1c1ccccc1)Sc1ccccc12` (configuration not stated) was run?
**A.** Its Potency is “inactive”.

**Q.** `O=C(Nc1ccc2nc(-c3ccccc3)[nH]c2c1)c1cccs1` was tested. Which Potency did it give?
**A.** Its Potency is active: 5.36 µM.

**Q.** Which Potency does the source give for `Cc1nn(C)c(C)c1S(=O)(=O)N1CCC(C(=O)NCC2COc3ccccc3O2)CC1` (configuration not stated) here?
**A.** Its Potency is “inactive”.

**Q.** `COc1ccc([C@H]2CC(=O)C=C(c3cccc4c3Oc3ccccc3S4)C2)cc1OC` was tested. Which Potency did it give?
**A.** The Potency was “inactive”.

**Q.** For `CCOC(=O)CNC(=O)c1ccc(OCC(F)(F)F)cc1`, which Potency is on record?
**A.** Its Potency is inconclusive: 26.9 µM [inhibitor, partial curve].

**Q.** For `O=C(CSCc1c(Cl)cccc1Cl)Nc1ccc2c(c1)OCCO2`, which Potency is on record?
**A.** Its Potency is active: 16.9 µM.

**Q.** How did the Potency turn out when `CCN(CC)C(=O)CSc1nc2sc3c(c2c(=O)n1-c1ccc(C)cc1)CC(C)(C)SC3` was run?
**A.** Its Potency is “inactive”.

**Q.** Which Potency does the source give for `O=C(CP(=O)(c1ccccc1)c1ccccc1)Nc1nc2ccc(Cl)cc2s1` here?
**A.** The Potency was “inactive”.

**Q.** Which Potency does the source give for `CN1C(=O)c2[nH]nc(-c3ccc(F)cc3)c2C1c1cccc(O)c1` (configuration not stated) here?
**A.** The Potency was “inactive”.

**Q.** How did the Potency turn out when `CC(C)c1ccc(NC(=O)c2sccc2-n2cccc2)cc1` was run?
**A.** The Potency was inconclusive: 26.9 µM [inhibitor, partial curve, poor fit].

**Q.** `COc1ccc(-c2cc(C(=O)NCC3CCCO3)c3cc(C(C)C)ccc3n2)cc1` (configuration not stated) was tested. Which Potency did it give?
**A.** Its Potency is inconclusive: 21.3 µM [inhibitor, single point].

**Q.** With `Cc1nc(SCc2ccc(Cl)cc2)ncc1C(=O)O` as the compound, how does the Potency read?
**A.** Its Potency is inconclusive: 21.3 µM [inhibitor, partial curve].

**Q.** Which Potency does the source give for `COc1ccc(/C=C/C(=O)NCC(=O)N/N=C(\C)Cc2ccccc2)cc1` here?
**A.** The Potency was inconclusive: 37.9 µM [inhibitor, partial curve, poor fit].

**Q.** `O=C(CN1C(=O)c2ccccc2C1=O)OCC(=O)c1ccccc1` was tested. Which Potency did it give?
**A.** The Potency was “inactive”.

**Q.** `Cc1ccc(Nc2cc(C)nc3nncn23)c(C)c1` was tested. Which Potency did it give?
**A.** Its Potency is “inactive”.

**Q.** With `O=C(N/N=C/c1ccc(OCc2ccccc2)cc1)c1ccc(O)cc1` as the compound, how does the Potency read?
**A.** The Potency was inconclusive: 16.9 µM [inhibitor, partial curve].

**Q.** For `O=C(COC(=O)c1ccc(O)cc1)Nc1ccccc1`, which Potency is on record?
**A.** The Potency was inconclusive: 21.3 µM [inhibitor, partial curve, poor fit].

**Q.** For `COc1ccc(-c2coc3cc(O)cc(O)c3c2=O)cc1OC`, which Potency is on record?
**A.** Its Potency is inconclusive: 26.9 µM [inhibitor, single point].

**Q.** With `CSc1ccccc1NC(=O)Nc1ccccc1` as the compound, how does the Potency read?
**A.** Its Potency is inconclusive: 26.9 µM [inhibitor, partial curve].

**Q.** How did the Potency turn out when `COc1cc(NC(=O)CN(c2cc(C)cc(C)c2)S(=O)(=O)c2c(C)[nH]c(=O)[nH]c2=O)cc(OC)c1` was run?
**A.** The Potency was inconclusive: 23.9 µM [inhibitor, partial curve, poor fit].

**Q.** How did the Potency turn out when `Cc1ccc(S(=O)(=O)/N=C2\C=C(Nc3cccc(C(=O)O)c3)C(=O)c3ccccc32)cc1` was run?
**A.** Its Potency is inconclusive: 26.9 µM [inhibitor, partial curve, poor fit].

**Q.** Which Potency does the source give for `O=C(O)[C@@H](c1ccccc1)N1Cc2ccccc2C1=O` here?
**A.** The Potency was inconclusive: 26.9 µM [inhibitor, partial curve, poor fit].

**Q.** Which Potency does the source give for `COc1ccccc1C(=O)Nc1nc(-c2ccc3c(c2)OCCO3)cs1` here?
**A.** The Potency was inconclusive: 19 µM [inhibitor, partial curve, poor fit].

**Q.** How did the Potency turn out when `CCOC(=O)c1sc(NC(=O)CNCc2cccnc2)c(C(=O)OCC)c1C` was run?
**A.** Its Potency is “inactive”.

**Q.** For `C(/CCc1ccccc1)=N\n1cnnc1`, which Potency is on record?
**A.** The Potency was “inactive”.

**Q.** `COc1ccccc1CNC(=O)c1ccc2c(c1)OCO2` was tested. Which Potency did it give?
**A.** The Potency was “inactive”.

**Q.** For `O=C(NCCSc1c(-c2ccc(Br)cc2)[nH]c2ccccc12)c1ccc(S(=O)(=O)N2CCOCC2)cc1`, which Potency is on record?
**A.** Its Potency is “inactive”.

**Q.** Which Potency does the source give for `COc1ccc(C(=O)CCC(=O)Nc2ccc(N3CCCCC3)cc2)cc1OC` here?
**A.** Its Potency is inconclusive: 23.9 µM [inhibitor, partial curve].

**Q.** With `Clc1cccc(-n2ncc3c(NCCCc4ccccc4)ncnc32)c1` as the compound, how does the Potency read?
**A.** The Potency was inconclusive: 26.9 µM [inhibitor, partial curve, poor fit].

**Q.** For `Cc1cc(C)cc(NC(=O)C(Cc2ccccc2)N2Cc3ccccc3C2=O)c1` (configuration not stated), which Potency is on record?
**A.** The Potency was “inactive”.

**Q.** `COc1ccc(NC(=O)CSc2nc3ccsc3c(=O)n2CCCCCC(=O)O)cc1` was tested. Which Potency did it give?
**A.** The Potency was inconclusive: 33.8 µM [inhibitor, partial curve, poor fit].

**Q.** With `CCCN(CCC)C(=O)c1c(NC(=O)CC)sc2c1CCCCC2` as the compound, how does the Potency read?
**A.** Its Potency is “inactive”.

**Q.** `Cc1ccc(C(=O)Nc2nc3ccccc3c(=O)s2)cc1` was tested. Which Potency did it give?
**A.** The Potency was active: 0.757 µM.

**Q.** `CCCOc1cccc(OCC(=O)Nc2nc3ccccc3[nH]2)c1` was tested. Which Potency did it give?
**A.** The Potency was inconclusive: 10.7 µM [inhibitor, partial curve].

**Q.** How did the Potency turn out when `Nc1nc(SC23CC4CC(CC(C4)C2)C3)ns1` was run?
**A.** The Potency was inconclusive: 3.01 µM [inhibitor, partial curve, poor fit].

**Q.** For `O=C(CSc1nnnn1-c1ccc2c(c1)OCCO2)OC1CCCCC1`, which Potency is on record?
**A.** The Potency was inconclusive: 16.9 µM [inhibitor, partial curve].

**Q.** With `N/C(=N\OC(=O)Cc1ccccc1[N+](=O)[O-])c1ccccn1` as the compound, how does the Potency read?
**A.** The Potency was inconclusive: 37.9 µM [inhibitor, partial curve, poor fit].

**Q.** For `c1ccn2c(c1)nc1c2nc2ccccn21`, which Potency is on record?
**A.** Its Potency is active: 16.9 µM.

**Q.** Which Potency does the source give for `COC(=O)c1c(-c2cccs2)csc1NC(=O)c1cc(OC)cc(OC)c1` here?
**A.** The Potency was inconclusive: 30.1 µM [inhibitor, partial curve, poor fit].

**Q.** `COc1ccc(N=Cc2cc(Cc3ccccc3Cl)cc([N+](=O)[O-])c2O)cc1OC` was tested. Which Potency did it give?
**A.** Its Potency is inconclusive: 30.1 µM [inhibitor, partial curve, poor fit].

**Q.** For `NC(=O)[C@H]1CC2(CC(c3cccc(NC(=O)COc4ccc(Cl)cc4)c3)=NO2)CN1C(=O)c1ccccc1C(=O)c1ccccc1` (some centres not stated), which Potency is on record?
**A.** Its Potency is inconclusive: 16.9 µM [inhibitor, partial curve].
